# Source: the supplement of paper PMC8728848
# This is one part of the list.
# B1: Clec2 (Mus musculus), Q9JL99 (protein)
# chain: MQDEDGYITLNIKPRKQALSSAEPASSWWRVMALVLLISSMGLVVGLVALGIMSVTQQKYLLAEKENLSATLQQLAKKFCQELIRQSEIKTKSTFEHKCSPCATKWRYHGDSCYGFFRRNLTWEESKQYCTEQNATLVKTASQSTLDYIAERITSVRWIGLSRQNSKKDWMWEDSSVLRKNGINLSGNTEENMNCAYLHNGKIHPASCKERHYLICERNAGMTRVDQLL
# Assays:
# Test in all cases: glycan array binding signal (z-score within array); higher = stronger binding
# Conditions in all cases: glycan notation: IUPAC condensed, linker removed
# [1] = molecular target: Neu5Ac(a2-3)Gal
# Procedure, shortened: (§1)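 Glycan array data were curated from 3228 arrays in the Consortium for Functional Glycomics database and kept only where the protein sequence was available. Glycan names were converted to IUPAC-condensed notation, and columns mapping to the same glycan were averaged. The binding signal is a within-array Z-score, averaged across arrays of the same protein sequence at different concentrations or buffers and across linkers. Negative Z-scores can be read as non-binding.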
# [2] = molecular target: Neu5Ac(a2-3)Gal(b1-3)GalNAc
# Procedure, shortened: as §1
# [3] = molecular target: Neu5Ac(a2-3)Gal(b1-3)GalNAc(b1-3)Gal(a1-4)Gal(b1-4)Glc
# Procedure, shortened: as §1
# [4] = molecular target: Neu5Ac(a2-3)Gal(b1-3)GalNAc(b1-4)[Neu5Ac(a2-3)]Gal(b1-4)Glc
# Procedure, shortened: as §1
# [5] = molecular target: Neu5Ac(a2-3)Gal(b1-3)GalNAc(b1-4)[Neu5Ac(a2-8)Neu5Ac(a2-3)]Gal(b1-4)Glc
# Procedure, shortened: as §1
# [6] = molecular target: Neu5Ac(a2-3)Gal(b1-3)GalNAc6S
# Procedure, shortened: as §1
# [7] = molecular target: Neu5Ac(a2-3)Gal(b1-3)GlcNAc
# Procedure, shortened: as §1
# [8] = molecular target: Neu5Ac(a2-3)Gal(b1-3)GlcNAc(b1-2)Man
# Procedure, shortened: as §1
# [9] = molecular target: Neu5Ac(a2-3)Gal(b1-3)GlcNAc(b1-2)Man(a1-3)[GlcNAc(b1-4)][Neu5Ac(a2-3)Gal(b1-3)GlcNAc(b1-2)Man(a1-6)]Man(b1-4)GlcNAc(b1-4)GlcNAc
# Procedure, shortened: as §1
# [10] = molecular target: Neu5Ac(a2-3)Gal(b1-3)GlcNAc(b1-2)Man(a1-3)[Neu5Ac(a2-3)Gal(b1-3)GlcNAc(b1-2)Man(a1-6)]Man(b1-4)GlcNAc(b1-4)GlcNAc
# Procedure, shortened: as §1
# [11] = molecular target: Neu5Ac(a2-3)Gal(b1-3)GlcNAc(b1-3)Gal(b1-3)GlcNAc
# Procedure, shortened: as §1
# [12] = molecular target: Neu5Ac(a2-3)Gal(b1-3)GlcNAc(b1-3)Gal(b1-4)GlcNAc
# Procedure, shortened: as §1
# [13] = molecular target: Neu5Ac(a2-3)Gal(b1-3)GlcNAc(b1-3)GalNAc
# Procedure, shortened: as §1
# [14] = molecular target: Neu5Ac(a2-3)Gal(b1-3)GlcNAc(b1-4)Gal(b1-4)Glc
# Procedure, shortened: as §1
# [15] = molecular target: Neu5Ac(a2-3)Gal(b1-3)GlcNAc(b1-6)GalNAc
# Procedure, shortened: as §1
# [16] = molecular target: Neu5Ac(a2-3)Gal(b1-3)GlcNAc6S
# Procedure, shortened: as §1
# [17] = molecular target: Neu5Ac(a2-3)Gal(b1-3)[Fuc(a1-4)]GlcNAc
# Procedure, shortened: as §1
# [18] = molecular target: Neu5Ac(a2-3)Gal(b1-3)[Fuc(a1-4)]GlcNAc(b1-3)Gal(b1-3)[Fuc(a1-4)]GlcNAc
# Procedure, shortened: as §1
# [19] = molecular target: Neu5Ac(a2-3)Gal(b1-3)[Fuc(a1-4)]GlcNAc(b1-3)Gal(b1-4)[Fuc(a1-3)]GlcNAc
# Procedure, shortened: as §1
# [20] = molecular target: Neu5Ac(a2-3)Gal(b1-3)[GlcNAc(b1-6)]GalNAc
# Procedure, shortened: as §1
# [21] = molecular target: Neu5Ac(a2-3)Gal(b1-3)[Neu5Ac(a2-6)]GalNAc
# Procedure, shortened: as §1
# [22] = molecular target: Neu5Ac(a2-3)Gal(b1-3)[Neu5Ac(a2-6)]GlcNAc(b1-3)[Fuc(a1-3)[Gal(b1-4)]GlcNAc(b1-6)]Gal(b1-4)Glc
# Procedure, shortened: as §1
# [23] = molecular target: Neu5Ac(a2-3)Gal(b1-3)]Neu5Ac(a2-3)Gal(b1-4)]GlcNAc
# Procedure, shortened: as §1
# [24] = molecular target: Neu5Ac(a2-3)Gal(b1-4)Glc
# Procedure, shortened: as §1
# [25] = molecular target: Neu5Ac(a2-3)Gal(b1-4)GlcNAc
# Procedure, shortened: as §1
# [26] = molecular target: Neu5Ac(a2-3)Gal(b1-4)GlcNAc(b1-2)Man
# Procedure, shortened: as §1
# [27] = molecular target: Neu5Ac(a2-3)Gal(b1-4)GlcNAc(b1-2)Man(a1-3)[GlcNAc(b1-4)][Neu5Ac(a2-3)Gal(b1-4)GlcNAc(b1-2)Man(a1-6)]Man(b1-4)GlcNAc(b1-4)GlcNAc
# Procedure, shortened: as §1
# [28] = molecular target: Neu5Ac(a2-3)Gal(b1-4)GlcNAc(b1-2)Man(a1-3)[Neu5Ac(a2-3)Gal(b1-4)GlcNAc(b1-2)Man(a1-6)]Man(b1-4)GlcNAc(b1-4)GlcNAc
# Procedure, shortened: as §1
# [29] = molecular target: Neu5Ac(a2-3)Gal(b1-4)GlcNAc(b1-2)Man(a1-3)[Neu5Ac(a2-3)Gal(b1-4)GlcNAc(b1-2)Man(a1-6)]Man(b1-4)GlcNAc(b1-4)[Fuc(a1-6)]GlcNAc
# Procedure, shortened: as §1
# [30] = molecular target: Neu5Ac(a2-3)Gal(b1-4)GlcNAc(b1-2)Man(a1-3)[Neu5Ac(a2-6)Gal(b1-4)GlcNAc(b1-2)Man(a1-6)]Man(b1-4)GlcNAc(b1-4)GlcNAc
# Procedure, shortened: as §1
# [31] = molecular target: Neu5Ac(a2-3)Gal(b1-4)GlcNAc(b1-2)[Neu5Ac(a2-3)Gal(b1-4)GlcNAc(b1-4)]Man(a1-3)[GlcNAc(b1-4)][Neu5Ac(a2-3)Gal(b1-4)GlcNAc(b1-2)[Neu5Ac(a2-3)Gal(b1-4)GlcNAc(b1-6)]Man(a1-6)]Man(b1-4)GlcNAc(b1-4)GlcNAc
# Procedure, shortened: as §1
# [32] = molecular target: Neu5Ac(a2-3)Gal(b1-4)GlcNAc(b1-2)[Neu5Ac(a2-3)Gal(b1-4)GlcNAc(b1-4)]Man(a1-3)[GlcNAc(b1-4)][Neu5Ac(a2-3)Gal(b1-4)GlcNAc(b1-4)Man(a1-6)]Man(b1-4)GlcNAc(b1-4)GlcNAc
# Procedure, shortened: as §1
# [33] = molecular target: Neu5Ac(a2-3)Gal(b1-4)GlcNAc(b1-2)[Neu5Ac(a2-3)Gal(b1-4)GlcNAc(b1-6)]Man(a1-6)[Neu5Ac(a2-3)Gal(b1-4)GlcNAc(b1-2)Man(a1-3)]Man(b1-4)GlcNAc(b1-4)GlcNAc
# Procedure, shortened: as §1
# [34] = molecular target: Neu5Ac(a2-3)Gal(b1-4)GlcNAc(b1-2)[Neu5Ac(a2-3)Gal(b1-4)GlcNAc(b1-6)]Man(a1-6)[Neu5Ac(a2-3)Gal(b1-4)GlcNAc(b1-2)Man(a1-3)][GlcNAc(b1-4)]Man(b1-4)GlcNAc(b1-4)GlcNAc
# Procedure, shortened: as §1
# [35] = molecular target: Neu5Ac(a2-3)Gal(b1-4)GlcNAc(b1-3)Gal
# Procedure, shortened: as §1
# [36] = molecular target: Neu5Ac(a2-3)Gal(b1-4)GlcNAc(b1-3)Gal(b1-3)GlcNAc
# Procedure, shortened: as §1
# [37] = molecular target: Neu5Ac(a2-3)Gal(b1-4)GlcNAc(b1-3)Gal(b1-4)GlcNAc
# Procedure, shortened: as §1
# [38] = molecular target: Neu5Ac(a2-3)Gal(b1-4)GlcNAc(b1-3)Gal(b1-4)GlcNAc(b1-2)Man(a1-3)[Neu5Ac(a2-3)Gal(b1-4)GlcNAc(b1-3)Gal(b1-4)GlcNAc(b1-2)Man(a1-6)]Man(b1-4)GlcNAc(b1-4)GlcNAc
# Procedure, shortened: as §1
# [39] = molecular target: Neu5Ac(a2-3)Gal(b1-4)GlcNAc(b1-3)Gal(b1-4)GlcNAc(b1-3)Gal(b1-4)GlcNAc
# Procedure, shortened: as §1
# [40] = molecular target: Neu5Ac(a2-3)Gal(b1-4)GlcNAc(b1-3)Gal(b1-4)GlcNAc(b1-3)Gal(b1-4)GlcNAc(b1-2)Man(a1-3)[Neu5Ac(a2-3)Gal(b1-4)GlcNAc(b1-3)Gal(b1-4)GlcNAc(b1-3)Gal(b1-4)GlcNAc(b1-2)Man(a1-6)]GalNAc
# Procedure, shortened: as §1
# [41] = molecular target: Neu5Ac(a2-3)Gal(b1-4)GlcNAc(b1-3)Gal(b1-4)GlcNAc(b1-3)GalNAc
# Procedure, shortened: as §1
# [42] = molecular target: Neu5Ac(a2-3)Gal(b1-4)GlcNAc(b1-3)Gal(b1-4)GlcNAc(b1-3)[Neu5Ac(a2-3)Gal(b1-4)GlcNAc(b1-3)Gal(b1-4)GlcNAc(b1-6)]GalNAc
# Procedure, shortened: as §1
# [43] = molecular target: Neu5Ac(a2-3)Gal(b1-4)GlcNAc(b1-3)Gal(b1-4)GlcNAc(b1-6)[Gal(b1-3)]GalNAc
# Procedure, shortened: as §1
# [44] = molecular target: Neu5Ac(a2-3)Gal(b1-4)GlcNAc(b1-3)Gal(b1-4)[Fuc(a1-3)]GlcNAc
# Procedure, shortened: as §1
# [45] = molecular target: Neu5Ac(a2-3)Gal(b1-4)GlcNAc(b1-3)GalNAc
# Procedure, shortened: as §1
binder,measurement,setting,value
B1,glycan array binding signal (z-score),[1],0.604
same,glycan array binding signal (z-score),[2],-0.182
same,glycan array binding signal (z-score),[3],-0.646
same,glycan array binding signal (z-score),[4],0.803
same,glycan array binding signal (z-score),[5],-0.158
same,glycan array binding signal (z-score),[6],1.92
same,glycan array binding signal (z-score),[7],0.081
same,glycan array binding signal (z-score),[8],1.15
same,glycan array binding signal (z-score),[9],-0.42
same,glycan array binding signal (z-score),[10],3.51
same,glycan array binding signal (z-score),[11],-0.738
same,glycan array binding signal (z-score),[12],-0.455
same,glycan array binding signal (z-score),[13],-0.042
same,glycan array binding signal (z-score),[14],0.267
same,glycan array binding signal (z-score),[15],0.017
same,glycan array binding signal (z-score),[16],0.86
same,glycan array binding signal (z-score),[17],-0.172
same,glycan array binding signal (z-score),[18],-0.432
same,glycan array binding signal (z-score),[19],-0.075
same,glycan array binding signal (z-score),[20],-0.495
same,glycan array binding signal (z-score),[21],0.533
same,glycan array binding signal (z-score),[22],-0.885
same,glycan array binding signal (z-score),[23],0.6
same,glycan array binding signal (z-score),[24],-0.067
same,glycan array binding signal (z-score),[25],-0.157
same,glycan array binding signal (z-score),[26],2.36
same,glycan array binding signal (z-score),[27],-0.632
same,glycan array binding signal (z-score),[28],-0.748
same,glycan array binding signal (z-score),[29],-0.891
same,glycan array binding signal (z-score),[30],-0.969
same,glycan array binding signal (z-score),[31],-0.711
same,glycan array binding signal (z-score),[32],-0.615
same,glycan array binding signal (z-score),[33],0.019
same,glycan array binding signal (z-score),[34],-0.558
same,glycan array binding signal (z-score),[35],-0.601
same,glycan array binding signal (z-score),[36],-0.814
same,glycan array binding signal (z-score),[37],-0.274
same,glycan array binding signal (z-score),[38],-0.452
same,glycan array binding signal (z-score),[39],-0.786
same,glycan array binding signal (z-score),[40],2.18
same,glycan array binding signal (z-score),[41],-0.803
same,glycan array binding signal (z-score),[42],0.14
same,glycan array binding signal (z-score),[43],-0.037
same,glycan array binding signal (z-score),[44],-0.238
same,glycan array binding signal (z-score),[45],-0.322
